Experimental data published in the supplement of paper PMC3334620.
The full ranking holds about 33,000 sequences; the median of “E-score (-0.5 to 0.5)” is about -0.012, and the highest 2% start at about 0.29. This is one part of the list.

target: T1, Ybr033w (UniProt P38073); assay: PBM E-score (8-mer binding enrichment) (E-score (-0.5 to 0.5)); higher = stronger / more preferred TF binding; most listed sequences are background and not binding sites; settings: protein concentration: 200 nM; construct: GST-full length
T1 sequence: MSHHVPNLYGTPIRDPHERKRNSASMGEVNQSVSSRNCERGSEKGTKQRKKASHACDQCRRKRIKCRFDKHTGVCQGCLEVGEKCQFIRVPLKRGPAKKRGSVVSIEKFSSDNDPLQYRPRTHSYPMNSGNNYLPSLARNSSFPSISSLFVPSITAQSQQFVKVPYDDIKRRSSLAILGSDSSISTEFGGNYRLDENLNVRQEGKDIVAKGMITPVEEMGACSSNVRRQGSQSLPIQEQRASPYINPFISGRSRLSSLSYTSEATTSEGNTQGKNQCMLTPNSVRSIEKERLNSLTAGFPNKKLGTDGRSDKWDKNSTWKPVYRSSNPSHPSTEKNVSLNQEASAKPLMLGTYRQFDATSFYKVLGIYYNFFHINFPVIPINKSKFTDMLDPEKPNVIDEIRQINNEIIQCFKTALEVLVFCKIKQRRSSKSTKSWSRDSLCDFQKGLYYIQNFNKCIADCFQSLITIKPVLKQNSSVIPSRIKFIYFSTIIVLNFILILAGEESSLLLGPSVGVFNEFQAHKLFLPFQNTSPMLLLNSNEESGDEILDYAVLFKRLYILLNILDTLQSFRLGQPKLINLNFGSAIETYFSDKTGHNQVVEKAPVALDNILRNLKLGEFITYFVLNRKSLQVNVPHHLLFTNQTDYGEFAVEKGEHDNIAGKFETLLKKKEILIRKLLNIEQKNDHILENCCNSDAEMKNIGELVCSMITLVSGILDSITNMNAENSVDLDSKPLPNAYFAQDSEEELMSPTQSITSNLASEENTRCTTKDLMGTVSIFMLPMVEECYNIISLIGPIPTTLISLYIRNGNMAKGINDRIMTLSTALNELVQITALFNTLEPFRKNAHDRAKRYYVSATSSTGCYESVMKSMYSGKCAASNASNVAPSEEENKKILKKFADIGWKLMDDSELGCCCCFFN
Protocol: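 Universal 'all 10-mer' protein binding microarrays (Agilent AMADID 015681) probed with GST-tagged S. cerevisiae TFs (full-length or DBD) made by in vitro transcription/translation (PURExpress), about 100-200 nM. Bound TF was detected with fluorescent anti-GST. Each ungapped 8-mer (which stands for itself and its reverse complement) is scored by the PBM enrichment score (E-score), a modified Wilcoxon-Mann-Whitney statistic from -0.5 to +0.5, computed with the Universal PBM Analysis Suite. Scale: above 0.35 generally sequence-specific binding.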

Sequence | PBM E-score
ACCCCGTG | -0.101
ATTATTCG | 0.328
GTAGCATA | 0.124
TTAAAAAA | 0.306
CATGTGCC | -0.194
CCGTATCC | -0.00047
ATCCACGG | 0.0163
GTCCCGTA | -0.146
CACACTAC | -0.0775
AATTTAAC | 0.245
ATAAACAA | 0.326
AGTTTGTG | 0.049
CTCATGAA | 0.111
AGGGATAT | 0.0785
CTCCTTCA | -0.121
CAGGGGCA | -0.215
CCCATGGC | -0.386
GTCAAACA | -0.0344
AATTTGCA | 0.0939
GCGTAACA | 0.0527
ATCAGACA | -0.0197
AACTTGCG | -0.00192
CTAGTTAC | -0.0321
GTACATTA | 0.17
AAGGATTA | 0.26

Sequence | PBM E-score
AGGTTGAC | -0.0309
CAGGTGAG | -0.0825
GGCAATGA | -0.132
GAGTCGCA | -0.24
AAAGTTTC | 0.163
CTGACTTC | -0.0877
GGCCCCAC | -0.303
CAAGTACA | 0.0873
CACGCTGG | -0.188
CATCAGGG | -0.172
AGCAACCG | -0.0338
CCGATCCA | -0.0621
AATCGGCC | -0.209
ACCCTCCA | -0.225
GGTGATTA | 0.252
AACGGGCT | -0.231
ACATATTC | 0.178
CAGACGGA | -0.0529
ACTAGCAT | 0.0646
AAACCTGT | 0.0221
AGGCGTAA | 0.0823
AAGGCATG | 0.00861
CGCATACC | 0.0415
CTAATAAG | 0.128
ACCTGCAT | -0.0909

Sequence | PBM E-score
AGGCAGTC | -0.143
GGTCCGCA | -0.225
ATCCTCAT | -0.0549
CCAACGTC | -0.0704
CCTTCTCC | -0.227
AACGAAGC | 0.117
CGACACGA | 0.122
CTCAATTA | 0.213
AGGCCTTG | -0.22
AAACAACG | 0.15
GAGGTCGA | -0.178
GTGGATAA | 0.169
AGAAGCCT | -0.0299
CGGCCCGC | -0.23
CGGTAGAG | -0.0888
AGGCTGGC | -0.183
AGTCCATG | -0.126
GCTGATCC | -0.0975
ACCTGAAC | -0.219
AGAATAAC | 0.141
AAAATATC | 0.304
CGGTACAA | 0.04
AAGATGGG | -0.169
CGTTCTAA | 0.0905
TCACCCAA | 0.0919

Sequence | PBM E-score
GCCGTCGA | -0.00647
ATTGCCGC | -0.0973
ATGGAGGG | -0.186
GGCTCCCA | -0.317
CAACCACC | 0.075
AGTACGTC | 0.0497
ATAGATCG | -0.051
CACGCAGC | -0.271
AATACTTG | 0.131
CTCTAAAA | -0.00952
CAAGTTAG | 0.0992
GCAGCTAC | 0.095
CCCATGCG | -0.144
TATATCAA | 0.21
CGCCTAAA | 0.0706
AGGTCAGC | 0.0524
AAGATTTA | 0.194
ATTGATCA | 0.051
AGTGACCC | -0.151
CGCGATTA | -0.0677
CCCAAACA | 0.147
AATATCGC | 0.159
CCGTTGTA | 0.127
GCGTGTAC | -0.161
CCACGCGC | -0.202

Sequence | PBM E-score
GAGTTTCA | 0.0406
GATTTCGC | 0.223
GGTAGAAA | -0.0446
GCATCTCC | -0.132
CGCCAACC | -0.0944
AGCGAAAC | 0.119
ACACTCTC | 0.0481
CTTTTTCC | 0.361
CCGCCACA | -0.158
AGATATAT | 0.241
AACAACCT | 0.0933
AGGGTATC | -0.0301
AACACGTC | -0.082
AATATACT | 0.279
AGTAGTAG | 0.0568
CCTTACAA | -0.0273
ACTTGCCC | -0.0215
GCTCAGCC | -0.261
GGGACCAA | -0.186
AAGGATTC | -0.0364
CAAACTAA | 0.21
TATGGTGA | 0.0433
CGATCCCG | -0.14
CTCCGCCA | -0.101
GAGGGGCC | -0.337

Sequence | PBM E-score
CGAAACCC | -0.138
ACACGCTG | -0.0448
ATAAGCTC | 0.0638
ACTTCGCT | -0.0354
CATAGTTA | 0.0586
CTGTCGGC | -0.209
AGCGTGGC | -0.138
AATCTATG | 0.144
GATTTGAC | 0.0524
CCAGCTGC | -0.301
GAGGACAA | -0.0837
CCCTGACA | -0.153
CCCCGCGA | -0.0387
ATAGCCCA | 0.139
CAATTTGA | 0.22
TACAACGA | 0.194
CGGAGGTC | -0.0941
ACAAGGAA | 0.105
CTACTATA | 0.229
GCGCGCAA | -0.0747
AAGTTGGT | 0.137
ACAATCCC | 0.0235
CAAGTGTA | 0.136
AGTCGTGA | -0.0717
CGGGCGAC | -0.356

Sequence | PBM E-score
CTATGTGC | 0.00263
ACTAGAGA | 0.066
AGCATGCG | 0.00619
CCGGTCTC | -0.268
AGTACTCA | 0.0723
CCGGGATA | 0.0871
CGCCGTCC | -0.126
GGGGGTTA | -0.325
GTACCGGA | 0.0229
GACCATAC | -0.0678
GGCGACCC | -0.301
ACGTTGGC | -0.0124
CGTATTGC | 0.00525
AGCAGAAC | -0.0734
CGGGAATA | 0.246
GGGGTTAC | -0.294
CTTGGACC | -0.277
ACCTTCCC | -0.261
CTAGCACC | 0.022
AAGTTCAG | 0.0724
GACTGGTA | 0.0356
AGCACTTG | -0.214
